The results in this text go back to patent US20210246179A1.

In general, EC50 refers to the concentration needed to bring the measured effect to its halfway point. High values mean lower potency in that assay, low ones higher potency in that assay.

In test [1] the target is Aβ1-42-E22Q (Dutch mutation) (human), P05067. Description: ELISA.
Test [2] addresses Aβ11-42-Pyro (human), P05067. Description: ELISA. Background: In an ELISA, binding on a coated surface is turned into a signal by an enzyme label.
Test [3] concerns the target Aβ3-42-Pyro (human), P05067. Description: ELISA.
Test [4] concerns the target N-truncated Aβ11-42 (human), P05067. Description: ELISA.
Test [5] concerns the target Human TauK18P301L fragment (human) (UniProt P10636). Description: ELISA.
The target is the same in test [6]. Description: ELISA on plate-coated fibers; the column head prints 'fTauKL Binding (nM)'.

UniProt P10636, sequence (P10636 561-689 P618L limits assumed): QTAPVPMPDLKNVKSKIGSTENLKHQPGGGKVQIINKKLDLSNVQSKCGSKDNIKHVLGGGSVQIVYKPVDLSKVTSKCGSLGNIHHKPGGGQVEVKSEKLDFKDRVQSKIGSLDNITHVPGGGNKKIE

B1: PB120 (GAIM scaffold; GAIM-Ig fusion protein) (Fc fusion)
chain: MAETVESCLAKPHTENSFTNVWKDDKTLDRYANYEGCLWNAGGVVVCTGDETQCYGTWVPIGLAIPENEGGGSEGGGSEGGGSEGGGTKPPEYGDTPIPGYTYINPLDGTYPPGTEQNPANPNPSLEESQPLNTFMFQNNRFRNRQGALTVYTGTFTQGTDPVKTYYQYTPVSSRAMYDAYWNGKFRDCAFHSGFNEDPFVCEYQGQSSDLPQPPANAGGESGGGSGGGSEGGGSEGGGSEGGGSEGGGSGGGSGSGARS[letters of human IgG1 Fc not shown]
B1: the EC50 is 21.9 nM in test [1]; 40.6 nM in test [2]; 24.1 nM in test [3]; 24.3 nM in test [4]; 59 nM in test [5].

B2: PB108 (open-stabilized GAIM-Ig fusion protein) (Fc fusion)
chain: MAETVESCLAKPHTENSFTNVWKEGDSRYANYEGCLWNAGGVVVCTGDETQCYGHWVPIGLAIPENEGGGSEGGGSEGGGSEGGGTKPPEYGDTPIPGYTYINPLDGTYPPGTEQNPANPNPSLEESQPLNTFMFQGNRFRNRQGALTVYTGTFTQGTDPVKTYYQYTPVSSRAMYDAYWNGKFRDCAFHSGFNEDPFVCEYQGQSSDLPQPPANAGGESGGGSGGGSEGGGSEGGGSEGGGSEGGGSGGGSGSGARS[letters of human IgG1 Fc not shown]
With B2, the half-maximal effective concentration (EC50) in test [2] worked out at 1.9 nM; in test [3] it was 1.1 nM; in test [4], 0.9 nM; in test [5], 14 nM; in test [6] it was 15 nM.

B3: PB114 (open-stabilized GAIM-Ig fusion protein) (Fc fusion)
chain: MAETVESCLAKPHTENSFTNVWKEGDSRYANYEGCLWNAGGVVVCTGDETQCYGHWVPIGLAIPENEGGGSEGGGSEGGGSEGGGTKPPEYGDTPIPGYTYINPLDGTYPPGTEQNPANPNPSLEESQPLNTFMFQNNRFRAVNGVLTVYTGTFTQGTDPVKTYYQYTPVSSRAMYDAYWNGKFRDCAFHSGFNEDPFVCEYQGQSSDLPQPPANAGGESGGGSGGGSEGGGSEGGGSEGGGSEGGGSGGGSGSGARS[letters of human IgG1 Fc not shown]
In test [6], B3 registered a concentration for a half-maximal effect (EC50) of 8.7 nM.

B4: PB122 (open-stabilized GAIM-Ig fusion protein) (Fc fusion)
chain: MAETVESCLAKPHTENSFTNVWKEGDSRYANYEGCLWNAGGVVVCTGDETQCYGHWVPIGLAIPENEGGGSEGGGSEGGGSEGGGTKPPEYGDTPIPGYTYINPLDGTYPPGTEQNPANPNPSLEESQPLNTFMFQNNRFRNVNGVLTVYTGTFTQGTDPVKTYYQYTPVSSRAMYDAYWNGKFRDCAFHSGFNEDPFVCEYQGQSSDLPQPPANAGGESGGGSGGGSEGGGSEGGGSEGGGSEGGGSGGGSGSGARS[letters of human IgG1 Fc not shown]
B4: the concentration giving a half-maximal response (EC50) in test [6] is 24 nM.

B5: PB116 (open-stabilized GAIM-Ig fusion protein) (Fc fusion)
chain: MAETVESCLAKPHTENSFTNVWKEGDSRYANYEGCLWNAGGVVVCTGDETQCYGHWVPIGLAIPENEGGGSEGGGSEGGGSEGGGTKPPEYGDTPIPGYTYINPLDGTYPPGTEQNPANPNPSLEESQPLNTFMFQGNRFRARQGALTVYTGTFTQGTDPVKTYYQYTPVSSRAMYDAYWNGKFRDCAFHSGFNEDPFVCEYQGQSSDLPQPPANAGGESGGGSGGGSEGGGSEGGGSEGGGSEGGGSGGGSGSGARS[letters of human IgG1 Fc not shown]
Molecule B5 registered an EC50 in test [6] of 7 nM.

B6: PB109 (open-stabilized GAIM-Ig fusion protein) (Fc fusion)
chain: MAETVESCLAKPHTENSFTNVWKEGDSRYANYEGCLWNAGGVVVCTGDEHQCYGTWVPIGLAIPENEGGGSEGGGSEGGGSEGGGTKPPEYGDTPIPGYTYINPLDGTYPPGTEQNPANPNPSLEESQPLNTFMFQGNRFRARQGALTVYTGTFTQGTDPVKTYYQYTPVSSRAMYDAYWNGKFRDCAFHSGFNEDPFVCEYQGQSSDLPQPPANAGGESGGGSGGGSEGGGSEGGGSEGGGSEGGGSGGGSGSGARS[letters of human IgG1 Fc not shown]
The molecule B6 returned a 50% effective concentration (EC50) in test [6] of 5.2 nM.

B7: PB110 (open-stabilized GAIM-Ig fusion protein) (Fc fusion)
chain: MAETVESCLAKPHTENSFTNVWKEGDSRYANYEGCLWNAGGVVVCTGDEHQCYGTWVPIGLAIPENEGGGSEGGGSEGGGSEGGGTKPPEYGDTPIPGYTYINPLDGTYPPGTEQNPANPNPSLEESQPLNTFMFQNNRFRAVNGVLTVYTGTFTQGTDPVKTYYQYTPVSSRAMYDAYWNGKFRDCAFHSGFNEDPFVCEYQGQSSDLPQPPANAGGESGGGSGGGSEGGGSEGGGSEGGGSEGGGSGGGSGSGARS[letters of human IgG1 Fc not shown]
Molecule B7 came in with an EC50 in test [6] of 7.6 nM.
